Assay results as given in patent US20230212319A1, “NOVEL ANTIGEN BINDING DOMAINS AND SYNTHETIC ANTIGEN RECEPTORS INCORPORATING THE SAME” (University of Southern California, priority 2020, published 2023).

B1: 21853 (protein)
chain: MALPVTALLLPLALLLHAARPSYVLTQPPSVSVAPGQTARITCGGNNIGGKSVHWYQQPPGQAPVVVVYDDSDRPSGIPERFSGSNSGNTATLTISRVEAGDEAVYYCQVWDSSSDHVVFGGGTKLTVLLEDLKNVFPPEVAVFEPSEAEISHTQKATLVCLATGFYPDHVELSWWVNGKEVHSGVCTDPQPLKEQPALNDSRYCLSSRLRVSATFWQNPRNHFRCQVQFYGLSENDEWTQDRAKPVTQIVSAEAWGRADCGFTSESYQQGVLSATILYEILLGKATLYAVLVSALVLMAMVKRKDSRGRAKRSGSGATNFSLLKQAGDVEENPGPTSMDWIWRILFLVGAATGAHSFEQLQLQESGPGLVKPSETLSLTCTVSGGSISSSSYFWGWIRQPPGKGLEWIGSIYYSGITYYNPSLKSRVTISVDTSKNQFSLKLSSVTAADTAVYYCARHDGAVAGLFDYWGQGTLVTVSSATRIQNPDPAVYQLRDSKSSDKSVCLFTDFDSQTNVSQSKDSDVYITDKCVLDMRSMDFKSNSAVAWSNKSDFACANAFNNSIIPEDTFFPSPESSCDVKLVEKSFETDTNLNFQNLSVIGFRILLLKVAGFNLLMTLRLWSS
B2: 21852 (protein)
chain: MALPVTALLLPLALLLHAARPSYVLTQPPSVSVAPGQTARITCGGNNLGSKSVHWYQQPPGQAPVVVVYDDSDRPSGIPERFSGSNSGNTATLTISRVEAGDEAVYYCQVWDSSSDHVVFGGGTKLTVLLEDLKNVFPPEVAVFEPSEAEISHTQKATLVCLATGFYPDHVELSWWVNGKEVHSGVCTDPQPLKEQPALNDSRYCLSSRLRVSATFWQNPRNHFRCQVQFYGLSENDEWTQDRAKPVTQIVSAEAWGRADCGFTSESYQQGVLSATILYEILLGKATLYAVLVSALVLMAMVKRKDSRGRAKRSGSGATNFSLLKQAGDVEENPGPTSMDWIWRILFLVGAATGAHSFEQLQLQESGPGLVKPSETLSLTCTVSGGSISSGSYFWGWIRQPPGKGLEWIGSIYYSGITYYNPTLKSRVTISVDTSKNQFSLKLSSVTAADTAVYYCARHDGAVAGLFDYWGQGTLVTVSSATRIQNPDPAVYQLRDSKSSDKSVCLFTDFDSQTNVSQSKDSDVYITDKCVLDMRSMDFKSNSAVAWSNKSDFACANAFNNSIIPEDTFFPSPESSCDVKLVEKSFETDTNLNFQNLSVIGFRILLLKVAGFNLLMTLRLWSS

Tested on: HL60 cells
Experiment: JNG NFAT-GFP induction on co-culture with HL60

| Molecule | GFP induction upon co-culture with HL60 |
| --- | --- |
| B1 | no GFP induction |
| B2 | no GFP induction |
